About 14,000 (4.5%) of roughly 310,000 compounds showed an effect of 50% or more. The effect is printed as a negative number. The list shows a part of the results.
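Also: peak tail current of the secondary pulse compared with the same well before compound.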

This assay deals with human ether-à-go-go-related gene (hERG) potassium channel (human, UniProt Q12809). As to the kind of experiment: primary screen, population patch clamp on CHO cells stably expressing hERG.
Sequence of human ether-à-go-go-related gene (hERG) potassium channel (Q12809 whole entry, looked up): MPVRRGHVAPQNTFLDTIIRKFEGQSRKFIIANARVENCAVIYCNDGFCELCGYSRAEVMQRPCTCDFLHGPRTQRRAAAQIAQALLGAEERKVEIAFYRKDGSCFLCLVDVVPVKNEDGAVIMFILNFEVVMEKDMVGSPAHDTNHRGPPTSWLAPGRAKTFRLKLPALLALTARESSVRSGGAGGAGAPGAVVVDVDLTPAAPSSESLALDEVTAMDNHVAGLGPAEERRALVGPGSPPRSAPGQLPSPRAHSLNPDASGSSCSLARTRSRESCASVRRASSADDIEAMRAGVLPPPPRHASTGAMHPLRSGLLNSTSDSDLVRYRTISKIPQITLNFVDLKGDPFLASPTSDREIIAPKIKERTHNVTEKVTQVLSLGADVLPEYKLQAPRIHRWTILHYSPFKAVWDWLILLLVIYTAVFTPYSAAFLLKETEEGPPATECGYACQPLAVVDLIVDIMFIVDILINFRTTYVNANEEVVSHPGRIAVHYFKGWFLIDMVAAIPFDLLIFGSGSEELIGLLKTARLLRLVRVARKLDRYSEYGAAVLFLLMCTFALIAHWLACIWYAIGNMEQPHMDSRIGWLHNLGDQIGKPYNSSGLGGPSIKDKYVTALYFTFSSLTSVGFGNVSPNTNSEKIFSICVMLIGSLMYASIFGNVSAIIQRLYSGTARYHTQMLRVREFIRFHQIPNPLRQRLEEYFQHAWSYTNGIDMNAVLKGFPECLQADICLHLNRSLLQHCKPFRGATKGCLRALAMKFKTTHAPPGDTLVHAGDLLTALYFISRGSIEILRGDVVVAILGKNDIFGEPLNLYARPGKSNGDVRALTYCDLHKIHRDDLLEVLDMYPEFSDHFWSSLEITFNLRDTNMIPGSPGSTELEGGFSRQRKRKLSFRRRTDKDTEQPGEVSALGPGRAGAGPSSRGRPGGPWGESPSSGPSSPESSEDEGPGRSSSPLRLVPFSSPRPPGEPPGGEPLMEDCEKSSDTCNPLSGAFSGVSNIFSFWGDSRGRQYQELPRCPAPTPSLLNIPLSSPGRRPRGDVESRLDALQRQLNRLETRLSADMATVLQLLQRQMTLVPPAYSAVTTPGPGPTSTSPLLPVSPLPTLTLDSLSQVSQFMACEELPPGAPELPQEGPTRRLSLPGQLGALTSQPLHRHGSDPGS
Turning to `O=C(c1cc(-c2ccccc2)nc2ccccc12)N1CCN(c2ccccc2O)CC1`, the “hERG current change (%, negative = inhibition) at 10uM” value is given as -10.9%. `Cc1ccc(C(=O)N/N=C/c2cc(C)n(-c3ccc(Br)cc3)c2C)cc1[N+](=O)[O-]`: the “hERG current change (%, negative = inhibition) at 10uM” value was 14.6%. The value for `O=C(NCCc1c[nH]c2ccccc12)C1CCN(S(=O)(=O)c2ccccc2)CC1` was -17.1%; that for `Cc1ccc(S(=O)(=O)N2CCN(C(=O)Cc3c(F)cccc3Cl)CC2)cc1` was 8.4%; that for `COC(=O)c1cn(NC(=O)c2ccccc2[N+](=O)[O-])c(=O)c2ccccc12` was 5.56%. With `CCCCC(=O)N1CCN(c2nc3ccc(OCC)cc3s2)CC1`, the “hERG current change (%, negative = inhibition) at 10uM” value is reported as -35.5%. With `COc1ccccc1CNS(=O)(=O)c1ccc2c(c1)NC(=O)CO2`, the “hERG current change (%, negative = inhibition) at 10uM” value is recorded as 15.2%.

As for `Oc1c(C(c2cccc(F)c2)N2CCN(Cc3ccccc3)CC2)sc2ncnn12` (centres unmarked), the “hERG current change (%, negative = inhibition) at 10uM” value is listed as -49.5%. Consider `CC(C)(C)C(=O)N1CCC(O)(CS(=O)(=O)Cc2ccccc2Cl)CC1`, for which the “hERG current change (%, negative = inhibition) at 10uM” value is listed as -1.96%. For the compound `Cc1cccc(NC(=S)NCc2cccs2)c1C`, the “hERG current change (%, negative = inhibition) at 10uM” value is reported as 1.28%.

With `Cc1ccc(CSCCNC(=O)c2ccc(N(C)S(=O)(=O)c3ccccc3)cc2)cc1`, the “hERG current change (%, negative = inhibition) at 10uM” value is -19.3%. On to `CC(=O)Cn1nnc2sc3c(c2c1=O)CCC(C(C)(C)C)C3` (centres unmarked), for which the “hERG current change (%, negative = inhibition) at 10uM” value is 0.891%.

`O=C(CCS(=O)(=O)Cc1ccccc1)Nc1nc2c(s1)CCCC2`: the “hERG current change (%, negative = inhibition) at 10uM” value is -2.93%. The value for `CSCC[C@H](NC(=O)OC(C)(C)C)C(=O)NCC1CCC(C(=O)O)CC1` (some centres unmarked) was -30.3%; that for `O=C(Cn1cnc2ccccc2c1=O)NC1CCCc2ccccc21` (centres unmarked) was 6.08%.

Turning to `NNC(=O)CN1C(c2ccccc2Br)=Nc2ccc(Br)cc2C1c1ccccc1` (centres unmarked), the “hERG current change (%, negative = inhibition) at 10uM” value is given as -1.49%. `COc1cc(C(=O)OCC(=O)NCCC2=CCCCC2)ccc1OCC(C)C`: the “hERG current change (%, negative = inhibition) at 10uM” value is recorded as 6.73%.

Take `CC(=O)Nc1ccc(C(=O)CS(=O)(=O)c2ccc(C)cc2)cc1`: the “hERG current change (%, negative = inhibition) at 10uM” value is -11.5%. Turning to `Cc1cccc2nc(CSc3nc4ccccc4o3)cn12`, the “hERG current change (%, negative = inhibition) at 10uM” value is reported as -19.6%. As to `Cc1ccc(OCC(O)CN2CCN(c3ccc(C)cc3)CC2)cc1` (centres unmarked), the “hERG current change (%, negative = inhibition) at 10uM” value is -28%. The value for `Cc1ccc(Nc2nc3nonc3[nH]c2=O)cc1` was 11.4%; that for `O=C(/C=C/c1cccc(Br)c1)OCC(=O)N1CCN(c2ccccc2)CC1` was -3.38%. On to `Cc1cc2ccccc2c(=O)n1CC(=O)Nc1ccc2c(c1)OCCO2`, for which the “hERG current change (%, negative = inhibition) at 10uM” value was -2.46%. Take `Cc1ccsc1CN(C)C(=O)c1ccc(Oc2ccccc2)cc1`: the “hERG current change (%, negative = inhibition) at 10uM” value was -26.8%.

Consider `CC1CCCN(C(=S)Nc2ccc(Nc3ccccc3)cc2)C1` (centres unmarked), for which the “hERG current change (%, negative = inhibition) at 10uM” value is listed as 19%.

Consider `Cc1occc1C(=O)Nc1ccccc1C#N`, for which the “hERG current change (%, negative = inhibition) at 10uM” value amounted to 19.8%. The value for `Oc1ccc(N2CCN(c3nnnn3-c3ccccc3)CC2)cc1` was -2.93%; that for `COc1ccc(-c2cc(C(F)F)n3ncc(C(=O)Nc4ccc(C(=O)N5CCOCC5)cc4)c3n2)cc1` was 0.413%.

Take `O=C(O)CSc1cn(Cc2ccccc2)c2ccccc12`: the “hERG current change (%, negative = inhibition) at 10uM” value is on record as 17.6%.

On to `Cn1c(=O)c(Oc2ccc(F)cc2)c(O)c2ccccc21`, for which the “hERG current change (%, negative = inhibition) at 10uM” value is reported as 1.22%. As to `Cc1[nH]c2ccc(F)cc2c1CCN1C(=O)OC(C)(C)C1(C)O` (centres unmarked), the “hERG current change (%, negative = inhibition) at 10uM” value was -7.23%.

As to `COc1cc(/C=N/NC(=O)NC23CC4CC(CC(C4)C2)C3)ccc1OCC(N)=O`, the “hERG current change (%, negative = inhibition) at 10uM” value was -57%.

On to `Cc1nc(NC(=O)c2ccccc2)nc2cc3c(cc12)OCO3`, for which the “hERG current change (%, negative = inhibition) at 10uM” value came to 7.75%. With `Cc1c(C)c2ccc(OCC(=O)Nc3ccc(CN4CCOCC4)cc3)cc2oc1=O`, the “hERG current change (%, negative = inhibition) at 10uM” value is listed as -36.2%. As to `CCc1nnc(NC(=O)C2CCN(c3nccc(C)n3)CC2)s1`, the “hERG current change (%, negative = inhibition) at 10uM” value turned out to be 10.8%. With `CCN(CC(=O)NCCc1ccc(S(N)(=O)=O)cc1)Cc1nc2ccccc2c(=O)[nH]1`, the “hERG current change (%, negative = inhibition) at 10uM” value was 17.9%.

In the case of `COc1ccc(CNC(=O)/C=C/c2ccccc2[N+](=O)[O-])cc1`, the “hERG current change (%, negative = inhibition) at 10uM” value is listed as 10.6%. On to `COc1ccc(CN2CCN(C(=O)Cn3c(=O)oc4cc(Cl)ccc43)CC2)c(OC)c1OC`, for which the “hERG current change (%, negative = inhibition) at 10uM” value is reported as -24.3%.

Turning to `COc1ccc(-c2cc3c(=O)n(CC(=O)Nc4ccc(Cl)cc4)ncn3n2)cc1`, the “hERG current change (%, negative = inhibition) at 10uM” value was 18.3%. The value for `O=S(=O)(c1ccc(NC(=S)NC2CCCC2)cc1)N1CCCC1` was 3.45%; that for `CCCn1c(SCC(=O)NNC(=O)c2ccc(C)cc2)nnc1C(C)C` was 10.8%; that for `COc1cc(CCNC(=O)c2ccccc2NC(=O)C2=C(C)OCCS2)cc(OC)c1OC` was -3.59%. For the compound `O=C(CN1CCN(c2ccccc2)CC1)Nc1ccc(Oc2ccccc2)cc1`, the “hERG current change (%, negative = inhibition) at 10uM” value amounted to 15.6%. The value for `COc1ccc(CC(=S)N2CCOCC2)cc1` was 11%.

Values taken from PMC4336329 (PLoS ONE, 2015).
